Experimental data from the supplement of paper PMC12632987.
Whole data set: some 4,500 sequences, median “median log2 fold change of GCK-ALFA target abundance (FLAG IP / Myc IP barcode read proportion)” near 0.078, cut for the lowest 2% near -0.6. The list shows a part of the results.

B1: GBRAP_184_5036 (protein)
chain: KVFEATIEAENKEELEAKLAALAEEVKGTGADLIVLADLENPTKEMVTTLLEGLGAMKKAGDVSSVTIGFRRELSEEVTDVAIETGDKYGVKVVLPISDE
B2: GBRAP_128_3324 (protein)
chain: MDEAAIEEAKRLAEEMVKASIEEAKELTKRFVALLGTLTPEEREIAAEIFEEELKKLSAEKLEAVADTLREQRPTLDPETAEVVADLEVEALNEAEEKEE
B3: GBRAP_52_6138 (protein)
chain: MEEELRAKAEEIIALVKAGKLEEARALARELAESLNDEELRLFADEFAKLIKELPKEELDAAAEALDIIVDELEAVGHDEELISYLLGKGTKAMYEVELK
B4: GBRAP_11_2726 (protein)
chain: RKETILKFAKEAEALAKEIEKLIKEGPTKEGLEKLAKKAKALYEAAKKAGLPEDIVETLKIAAELLKEAIADPKNAEKYLREAAAAFRVAAGLLLLEAEE
B5: GBRAP_160_4065 (protein)
chain: EEELEKLKKEIDEIVEEAIEMMKDETHEQRVTIARVMKGEVVLLLSEDENVSEEAEDEADEIGDETVETIENNPDLTLEEIEKLLRETAEKIKEALDKHS
B6: GBRAP_117_2592 (protein)
chain: SATREAARAKIRATVAEVEALFKELAGLSPEEQAEALAAMRERVKAVLREVIEELGEEEAEELLDEALLDTDAETYFFLESVREDTLEELEEEEEEEERE
B7: GBRAP_80_6842 (protein)
chain: AQAALAAARARLYALLPEAAPLVDEVIALARELGVPDSVIADYVAALAELAAEDPERARELLEELLADLKELKAEGDYANAEAVLRGYAGDALMEAEELR
B8: GBRAP_128_3284 (protein)
chain: MDEELLAEAKALIDQIVNGPLEEVPALTRRLAELLEQMSDEERDKVVDYFEKEAEKMSEEKLEAVMDELERLRPQMSPLVQNYVADMMTILGEQLLELEE
B9: GBRAP_80_6822 (protein)
chain: MEEELEANLKALEAVDPEIAKIVREIVEIARELGVPLETLVRLAKAILELAKVDKEKARELAEELLEELREEREEGDREGALAELVDAESEALLEVEELE
B10: GBRAP_128_3285 (protein)
chain: MDEERLEEAFELIEKIRDSELEEVPALTAELVELMEKMSEEELDLVLEYFEEEAEKMSEEKLEAVMDTLRELRPTASPLVQNYLADMMVVLGEKLLELEE
B11: GBRAP_128_3187 (protein)
chain: SVEEVKKKTREAMEKIKNSDKETAEKIAKELFESLLTLSLEEAEAAIEVIEEKLPEFSKEKLEIIADVAREYRPKADPEKARLIAGLEVEALNEIEELEE
B12: GBRAP_166_4894 (protein)
chain: AVEEAIKRIKAIADETIKNIEELTEEEIQEAFIEIAEIVREAGRSEELIKTAAEETTRIVEAAVKAGFDWETLKSLALAAFGDDEELLDTLEKELEKSKK
B13: GBRAP_122_2944 (protein)
chain: GARQAELEALIDAMIAALAAGDDAALAAAARALVALFATVTPEEARAAIEALIERLAPDPEALERALQALLAAFYEQQPQTPAQEAAADLVAERFDELSE
B14: GBRAP_128_3360 (protein)
chain: LDEELLAKAKELVEAMKTADVEETKALTKEVIALMAEADPETAEAIAEIIIEALPEFSAEKLEAIADAIREAMPKADPYKANLLAEVEVEALNEAVEKEE
B15: GBRAP_14_3768 (protein)
chain: MEEIEKILKEASERIIELLSELAPEKAEEFEKAVKEITEEAIKRIRETGKAEETMEEAREELIARIDEILKGYPAEVQAQARAIVDVELGQAILEIDELL
B16: GBRAP_160_4820 (protein)
chain: EEKVKKVFELIDEYFEEALELVEGETAEQRAVVVAVVGGQLLLDLSEDESVSDELEDKVDEIIDELVEEILANPDLTDEELRELIEKAAEEIKEAAKEDF
B17: GBRAP_64_6486 (protein)
chain: EEEIKKLHEETLKQAKKLVELLKDSSEELQKQAKEVLELIEKSKEASLEEAAKLLAEAAKLLNELLKSPELTEEQKDQVAETLDLVSELLWLVVEKELEK
B18: GBRAP_160_4178 (protein)
chain: SEKIEEAEEEIEEIFEEAYEMMKGQTAEERAAIVDVAFGEIILYLEEKGLLTDETEAKIDEIRDETVSYILANPDLTDEELRELLEEAAEEIIEALRENS
B19: GBRAP_160_4340 (protein)
chain: SEEIEKLIKYINEEFERTKKLIEGETIEQRKVIIDGTFGEIAMELAEDESVSDETVDKVLEIRDETIAYLDENPDLTEEEIKKLIDEAREKIIEILKESE
B20: GBRAP_95_7046 (protein)
chain: EDDQLAFDSLAEVLETYLDLGDEERAERAARELVRLWKEGGFLPVPSSLSPESAVLVVRAAAEELDPESTARLKARVVEASGDPALAERLDAVIAEVRAA
B21: GBRAP_52_6008 (protein)
chain: MREEIREVLEKALELVKEGKEEEAYKLLLEKVKSLNEEEVELLVEELAELAAEAPLEDFDAVWKLAELAAEALEEAGKDEALADELLARVAAALYEREQR
B22: GBRAP_128_3169 (protein)
chain: MSEEIVEEVKKLVEEMLKANKEEFKKLAEKIVEIIGKADLETAEKIVEIIIENLPKFSEEKLEILIDVIRKQMPKFTPEKQELLAEVAVEAGERILELEE
B23: GBRAP_9_7142 (protein)
chain: MKEVIDKIIELAEEAKEDALAIAPEEYKPLVKAKYDEFIDALKALKADPNTTLEEIRKTSEEQIEKIKKTFKAELPADLAKQLEAILLTLEEEIEEILES
B24: GBRAP_150_3923 (protein)
chain: DIEELETIVSTALDLALGIKDGEYSLVPAAIKLAKDALEESEELPEELKEKLKKLLTEAIKKLEAIKAGAPEEERKKLVKEAVELMEEALKLVEEYKKKQ
B25: GBRAP_11_2938 (protein)
chain: SMEEIEKATKKLVEAAEEGAAYLDAHPDETRLPKELLEKLEKAVKELQKVVNEEEAEELKEELELLLELIEEGAPAAEIAAALRVLAGEALLILEELEEK
B26: GBRAP_52_5905 (protein)
chain: MRARLRADLEEIIAAVRAGDLEAARAKARELAETYDDEELELAAEELAALVLEAPREDLPAWWRTAEIIAEALEEAGRDEVLADLVLSRTAAAIHEVLQR
B27: GBRAP_78_6615 (protein)
chain: KKKEEILKKLDEAAELLREIRKKQPELADEAADAETLVGTAIYMLDTEEESLEELKEQVEEALKALKELKKKLKDAPKEVQKLAEEAEKLVQEALKLLKE
B28: GBRAP_160_4145 (protein)
chain: SEEIEELIKEIREIAEEALEMIEGESPEEAKTIARVAFGEIVMLVDSNEAVSEETEEKVGEIAREAEARLDANPDLSVEEVKELLREATEKVVKVLEEEK
B29: GBRAP_78_6604 (protein)
chain: EVEELIDKAIEHLDKASKLTKELNEEDQNELQDLIVEALSELLESLENGPNLENIKEAIKYLEEALKKVKELNKEEAKKIEEELKKAIEYLKKAEELLKK

target: GABARAP, O95166; test: median log2 fold change of GCK-ALFA target abundance (FLAG IP / Myc IP barcode read proportion) (log2 ratio); each designed protein is fused to an ALFA-tag nanobody in HEK293 cells to bring the named protein to FLAG-tagged glucokinase (GCK); Myc marks an untargeted standard; higher = target protein stabilised (more abundant); conditions: target protein: 3xFLAG-MCP-GCK-ALFA reporter; HEK293 landing pad (RPLP)
In short: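 Binders fused to an ALFA nanobody were recombined as a library into HEK293 landing-pad cells, which were induced with 2 μg mL^−1 doxycycline and then transfected to express a FLAG-tagged target and a Myc-tagged standard. After 48 h, circular RNA barcodes recovered by anti-FLAG and anti-Myc immunoprecipitation of lysates were reverse transcribed, amplified and sequenced. Each binder's target abundance is the median log2 ratio of FLAG to Myc barcode read proportions, from barcodes present at ≥10^−7 in both replicates, binders carrying ≥3 barcodes per replicate, a 10^−6 pseudocount and pooled replicates.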

GABARAP, O95166, sequence (O95166 whole entry, the tested form may be a part): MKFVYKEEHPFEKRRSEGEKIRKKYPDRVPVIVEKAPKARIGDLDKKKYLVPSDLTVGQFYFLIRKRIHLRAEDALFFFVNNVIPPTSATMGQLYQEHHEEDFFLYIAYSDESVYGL

| Binder | median log2 fold change |
| --- | --- |
| B1 | -0.117 |
| B2 | 0.164 |
| B3 | 0.101 |
| B4 | 0.0545 |
| B5 | -0.103 |
| B6 | 0.191 |
| B7 | -0.0772 |
| B8 | 0.0184 |
| B9 | -0.574 |
| B10 | -0.339 |
| B11 | 0.435 |
| B12 | 0.269 |
| B13 | 0.224 |
| B14 | 0.0821 |
| B15 | 0.235 |
| B16 | -0.219 |
| B17 | 0.19 |
| B18 | -0.598 |
| B19 | -0.259 |
| B20 | 0.184 |
| B21 | -0.00364 |
| B22 | 0.0148 |
| B23 | 0.159 |
| B24 | 0.0166 |
| B25 | -0.101 |
| B26 | -0.658 |
| B27 | 0.247 |
| B28 | 0.248 |
| B29 | 0.152 |
